Assay results reported in the RNAGym collection of RNA variant scans (doi:10.7554/elife.90254).
The source gives no read counts; variants with many changes may rest on few reads.

B1: LINE1-mini (parent)
chain: GGCAGAGCUCAACACAGCGUGGCAAAGUGGCUGUGGCUAGACUGCC

Variants of: B1
Test: self-cleavage, relative activity (ratio to wild type); higher = more cleavage; in vitro, sequencing; the parent is a self-cleaving ribozyme

Variant | self-cleavage
GGCAGAGCUCAACACAGCGUGGCAAAGUGGCUGUGGCUAGAAAGGC | 0.07
UGGAGAGCUCAACACAGCGUUGCAAAGUGGCUAUGGGUUGAUUGCC | 0.01
GGUAGAGCUCAACACAGAGUGGCAAAGUGGCUGUGGCUAUACUGCC | 0.09
GGCGGAGCUCAACACAGCGUGGGUAUGUGGCUGUGGCUAGACUGCC | 0.16
GGCAUAGCUCAACACAGCGUGGCAAAGUGGCUGUUGUUAGACUGCC | 0.07
GGCAGAGCUCAACACAGCGUGGCAAUGUGGCUGUGGCUAGACCUCC | 0.29
GGCAGAGCUCUACACAGCGUUGCAAGGUGGCUGUGGCUAGACUGCC | 0.08
GGCAGAGCUCAACACAGCGUGGCAACUUGGUUUUGCCUAGCCUGCC | 0
GGCAAAGCUCAACACUGCGUGGCAAAGUGGAUGUGGCUAGACUGCC | 0.03
AGUAGAGCUCAACACAGCGUGGCAAAGUGGCUGUGGCUAGAUUGCC | 0.14
GGCAGAACUCAACCCAGCGUGGCAAAGUGGCUGUGUCUAGACUGCC | 0.16
GGAAGAGCUCAUCACAGCGUGGCAAAGUGGCUGUGGCUAGACUUGC | 0.34
GGCAGAGCGCAUCACAGCGUGGCAAAGUGCCUGUGGCUAGACUGCC | 0.02
GGCAGAACUCAAAACAGCGUGGCAAAGUGGCUGUGGCUAGGCUGCC | 0.03
CACAGAGCUCAACACAGCAUGGCAAAGUGGCUGUGGCUAGACUGCC | 0.15
GGCGGAGCUCAACACAGCGUGGCAAAGUGGCCGUGGCAAGACUGCC | 0.09
GGAAGCGCUCAAUACAGCGUGGCAAAGUGGCUGCGGGUAGACUGCC | 0.12
GGCAGAGCUUAACACAGCGUGGCAAAGUGGCCGUGGCUAGAUUGCC | 0.07
GGCAGAGCUCAACCCAGCGUGGCAUAGUGGCCGUGUCUAGACUGGU | 0.02
GGCAGAGCUCAAUACAGCGUGGCAAAGUGGCCGUGGCUAGAAUGCC | 0.22
GGAAGAGCUAAACAUAGCGUGGCAACGUGGCUGUGGCUUGACUGCC | 0.05
GGCACAGCUCAAAACAGCGUCGCGAAGUUGCUGUGGCUAGACUGCC | 0.01
GUCAGAGCUCAACACCGCUUGGCAAAGUGGCUGUGGCUAGACUGCC | 0

Variant | self-cleavage
AGCAAAGCUAAACACAGCGUGGCAAAAUGGCUGUGGCUAGACUGCC | 0.1
GGCAGUGCUCAACACAGUGUGGCAAAGUGGCUGUGGCUAGGCUGCC | 1.17
GGCACAGCUCAACACAGCAUGGCAAAGUGGCUGUGGCUAGAGUGCC | 0.98
GGCAGGGCUCUACACAACGUGGGAAAGUGGCUGUGGCUAGACUGCC | 0
GGCAGAGCUCAACACAGCGUGGCCAAGUGGCUGUGGCUUGACUGAC | 0.02
GGCAGAGCUCAUCACAGCUUGCCAAAGUCGCUAUGGCUAGACUGCC | 0.02
UGCAGAGCUCGACACAGCGUGGCAAAGUGUCUGUGGCUAGACUGCC | 0
GGCAGGACUUAACAGAGCGUGGCAAACUGGCUGUGGCUAGACUGCC | 0.01
GGCAGACCUCAACACAGCGUGGGAAAGUGGCUGUGGCAAGACUGCC | 0.01
GGCAGAGCUCAACUCAGCGUGGCAAAGUGCCUGUGGCUAGGCUGCC | 0.07
GGCAGAGCUCAACCCAGCAUGGCAAAGUGGCUCUGGCUAGACUGCC | 0.02
GACAGAGCUCACCACACCGUGGCAAAGUGGCUGUGGCUAGACUGCC | 0.14
GGCAGAGCUUAACACAGCGUGGCAAAGUGGCUGUUGCUUGACUGCC | 0.03
GGCAGAGAUCAACACAGCGUGGCUAAGUGUCUGUGCCUAGGCUGCA | 0.07
GACAGAGCUCAACACAGCGUCGCAAAGUCGCUGUGGCUAGACUGCC | 0.36
GGCCGAACUCAACACAGCGUGCCAAAGUAGCUGUGGCUAGACAGCC | 0.09
GGCAGAGCUCAACACAGCGUGUCAAAGUACCUGUAGGUAGACUGCC | 0.05
GGCAGAGCUCAACACUGAGUGGCAAAGUGUCUGUGGCUAGACUGCC | 0.03
GACAGAGCUCAACACAGCAUGGCAAAGUGGCUCUGGCUAGACUGCC | 0.03
GGCGGAGCUCCACACAGCGUGGCAAAGUGGCCGUGGCUAGACGGCC | 0.01
UGCAGAGCUCCACACAGCGUGGCAACGUGGGGGUGGCUAGACUGCC | 0.02
GACAGAGCUCAACACAGCGUGGCAAAGUGGCAGGGGCUAGACUACC | 0.09
GGUAGAGCUCAACACAGCGUGGCAAAGUGGGUGUGGCUAGCCUGCC | 0.49

Variant | self-cleavage
GGCAGAGCUCAACACAGCGUAGCAAAGUGGCUGCUGAUAGACUGCC | 0.23
GGCCAAGCUCAAUACAGCGUGCCAAAGUGGCUGUGGCUAGACUGCA | 0.05
GGCAGAGCUCAACACAGCGUGGGAAAGUGGUUGUGGCUAGACUGCA | 0.08
GGCAGAGCUCUACACGGCGUGGCAAAGUGGCUGUGGCUAUUCUUCC | 0.01
AGCAGAGCUCAAAAUAGCGUUGCAAAGAGGCUGUGGAUAGACUGCC | 0
GGCAGAGCUCAACACAGCGUGACAAAGUAGCUGUAGCUAGACUGCC | 0.36
GGCAGAGCUCAACAUAGCUUGGCAAAGUGGCUGUGGCUAGCCUGCC | 0.03
GGCAGAGAUCAACACAGCAAGGCAAAGUGGCUCUGCCUAUACUGCC | 0.04
GGCAGAACCCAACAAAGCGUGGCAAAGUGGCGGUGGCUAGACUGCC | 0.02
GGCAGAGCUCAACACAUCCUGCCAAGGUGGCUGUGGCUAGACUGCC | 0.03
GGCGUAGCUCAAAACAUCGUGGCAAAGUGGCUGUGGCUAGACUGCC | 0.06
GGCAGAGCUCAAAACGGCGUGGCAAAGUGGCUGUGGCUAGAAUGCC | 0
GGCAGAGCGCAACACAGCGUGGCAAAAUGGCAAUGCCUAGACUGCC | 0.01
AGCAGAGCUCAAAACAGCGUGGCAAAGUGGCUGUGGCUAUACUGCC | 0.07
GGAAGAGCUCAACUUAGCGUGGUAAAGUGGCUGUGGCUAGACUGCC | 0.42
GGCAGAGUUCAAUGCAGCGUGGCAAAGGGGUUGUGGCUAGACUGCC | 0.13
GGCAGAGCUCUACAAAGCGUGUCAAAGUGGCUGUGGCUAGACUGCC | 0.01
GGCAGAGCUCAACACACCGUGCCAAAGUGGCUGUGGGUAGACUGCC | 0.08
GGUAGAGCUAAACACAGCGUGGCAAAGUGGCUGUGGCUAGACUCCC | 0.02
GAAAGAGCUCAACACAGCUUGGCAAAGUGGCUGUGGCUAGACAGCC | 0.67
CUCAGAGCUCAACACAGCGUGGCAAAGUGGCUGUGGCCAGACUGCC | 0.09
GGCAGAGCUGAACACAGCGUGACAAAGUGGCUGUGGCUAGUCUGCC | 0.07
UGCAGAGCGCAACACAGCGUGGCAAUGUGGCUGUGGCUAGACUGCC | 0.07

Variant | self-cleavage
UGCAGAGCUCAACACAGCGUGGCAUAGUGGCUGUGGUUAGAAUGCC | 0.01
GGCAGAGAUCAAGACAGCGUGGCAAAGUGGUUGUGGCUAGACUGCC | 0.28
GGCAGAGCUCAACACAACGUGGCAAAGUCGCUUUGGCCAGACUGCC | 0.02
GGCAGAGCUCAACACGGCGUAGCAACGUGGCUGUGGCUAGACUGUC | 0.07
GGCAGAGCACAACACAGCGUGGCAAAGGCGCUGUGGCUAGACUGCC | 0.01
GGCAGAGCUCAACACAGCGUGGCAAAGUGCAUGUGGCUAGACUGUC | 0.94
GACAGAGAUCAACAGAGCGUGGCAAAGUGGCUGUGGCUAGACUGCC | 0.21
AGCAGAGCUCAACCCAGCGUGGUAAUGUGGCUGUGGCUAGACUGCC | 0.33
AGCAGAGCUUAACACAGCGUGGCAAAGCGGCUGUGGCUAGACUGCC | 0.32
GGCAGAGCUCAACUCAGCGUUGCAAAGUUGCUGUGGCUAGACUGCG | 0.86
CCCAGAGCUCAUAACAGCGUGGCAAUGUGGCUGUGGCUAGACUGCC | 0.05
GGCAGAUCUCAACACGGCGUGGCAUAGUGUCUGUGGCUAGACUGCC | 0.2
GGCUGAGCGCAACACAGCUUUGCGAAGUGGCUGUGGCUACACUGCC | 0.35
GUCAAAGCUCAACACAGUGUGGCAAAGUGGCUGUGGCUAGACUGCC | 0.02
GGCAAAGCUCAACACAGCGUGGCAAAAUGCCUGUGGCUAUACUGCC | 0.05
GGCAGAGCGCAAGACGGCAUGGCAAAGUGGCUGUGGAUAGCCUGCC | 0.03
GGCAGAGCUCAAAACAGUGUGGCAAAGUGCCUGUGGCUAGACUGCC | 0.05
GGCAGAGCUCAACAAAGCGUGGCAAAGUGGCUGUUGCAAGACUGCC | 0.03
UGAAGAGCUCAACACAGCGUGGCAAAGUGGCUGUGGGUAGACUGCC | 0.2
GGCAGAGCUCAACGCAGCGUGGAAAAGUGGCUGUGGCUAGACUGCG | 0.59
AGCAGAGCUCAACACAGCGUGGCAACGUUGCUGUGGCUAGACUGCC | 0.2
GGCAGAGCGCAACACAGCGUGGCUAAGUGGCUGUGGCUCGACUGCC | 0.06
GACAGAUCUCAACACAGAGUGGCAAAGUUGCUGUGGCUAGACUGCC | 0.13

Variant | self-cleavage
GGCAGAGCUCCAUACAGCGUGGCAAAGAGGCUGUGGCUAGACUGCC | 0.02
CGCAGAUCUCAAAACAGCGUGGCAAAGUGGCUGUGGCUAGACCGCA | 0.03
GGCAGAGCUCCACACAGCGUGGUAAAGUGCCUGUGGCUAGACUGCC | 0.1
GGCAUAGCUCAACACAGCGUGGCAAAGUGUUUGUGGCUAGACUGCC | 0.08
GGGAGAGCUCAACACAGCGUGGCUAAGUGGCUGUAGAUAGACGGCC | 0.01
GGCAGAGCUCAACACAGCUUGGCAAAGUCGCUGUUGAUAGACUGCC | 0.09
AGCAGAGCUCGACACAACGUGGCAAAGUGUCUGUGGCUAGACUGCC | 0.03
GGCAAAGCUCAACAAAGCGUGACAAAGUUGCUGUGUCUAGACUGCC | 0.08
GGCAUAGCUCAACACAGCAUGGCAAAGUGGCUGUGGCUCGACUGCC | 0.03
GUCAGAGCUCAACGCAGCGUGGCAAAGUGACUGUGGCUGGACUGCC | 0.02
GGCAGAGCUCAACACAGCGUGGCAAAGUGCCCGUGGAUAGACUGCC | 0.05
GGCAGAGCUCAACACAGCGUGGCAAAGUGGCUAUGGCAAGCCUGCC | 0.01
GGCAGGGCUCAACAGAGCGUGGCAAAGUGGCUGUGACUAGACAGCC | 0
GUCAGAGCUCCAGACAGCGUGGCAAAGUGGCUGUGGCUAGACUGCC | 0
GGCAGAGCUCAACACAGCUUGGCAACGUAGCUGUGGCUAGACUGCC | 0.34
GGUAAAGCUCAACUCAGCGUUGCAAAGUGGCUGUGGCUAGACUGCC | 0.19
GGCAGAGCUCAACACAGCGUGGCAAAGUCGCUGUGACUUGACUGCC | 0.04
GGCAGAGCUCAACACUGCGUGGUAAAGUGGCUGUGGCUCGACUCCC | 0
GGCAGAGAACAACACAGCGUGGGAAAGUGUCUGUGGCUAGACUGCC | 0.24
GGCAGACCUCUACACCGCGUGGCAAGGUGGCUGUGGCUAGACUGCC | 0.02
